Measured values published in PubChem BioAssay (Tox21).
Where “and” joins values, the source holds several entries; their conditions need not be identical. Identical values can stand only once. Inconclusive results, whose numbers are uncertain, are shown with a selection of clear calls. Where the call is inconclusive, the potency comes from a doubtful curve fit. Calls of active or inactive are those of the source. Calls come from the whole dose curve; as a rule, active = well fitted curve in the direction sought with a large enough effect in the repeat runs; inconclusive = weak or mixed curves; inactive = no such curve, though single readings can be large; an effect the other way counts as inactive or inconclusive.

target: Voltage-gated inwardly rectifying potassium channel KCNH2 (Homo sapiens) (UniProt Q12809); assay: Human Ether-a-go-go-Related Gene (hERG) channel small molecule antagonists: fluorescence cell-based qHTS assay (AID 1671200); details: hERG-U2OS cells, FluxOR thallium flux fluorescence; series mostly up to 76.8 µM; activity change, negative = inhibition: at the top concentration
Chain of UniProt Q12809 (Q12809 whole entry, looked up): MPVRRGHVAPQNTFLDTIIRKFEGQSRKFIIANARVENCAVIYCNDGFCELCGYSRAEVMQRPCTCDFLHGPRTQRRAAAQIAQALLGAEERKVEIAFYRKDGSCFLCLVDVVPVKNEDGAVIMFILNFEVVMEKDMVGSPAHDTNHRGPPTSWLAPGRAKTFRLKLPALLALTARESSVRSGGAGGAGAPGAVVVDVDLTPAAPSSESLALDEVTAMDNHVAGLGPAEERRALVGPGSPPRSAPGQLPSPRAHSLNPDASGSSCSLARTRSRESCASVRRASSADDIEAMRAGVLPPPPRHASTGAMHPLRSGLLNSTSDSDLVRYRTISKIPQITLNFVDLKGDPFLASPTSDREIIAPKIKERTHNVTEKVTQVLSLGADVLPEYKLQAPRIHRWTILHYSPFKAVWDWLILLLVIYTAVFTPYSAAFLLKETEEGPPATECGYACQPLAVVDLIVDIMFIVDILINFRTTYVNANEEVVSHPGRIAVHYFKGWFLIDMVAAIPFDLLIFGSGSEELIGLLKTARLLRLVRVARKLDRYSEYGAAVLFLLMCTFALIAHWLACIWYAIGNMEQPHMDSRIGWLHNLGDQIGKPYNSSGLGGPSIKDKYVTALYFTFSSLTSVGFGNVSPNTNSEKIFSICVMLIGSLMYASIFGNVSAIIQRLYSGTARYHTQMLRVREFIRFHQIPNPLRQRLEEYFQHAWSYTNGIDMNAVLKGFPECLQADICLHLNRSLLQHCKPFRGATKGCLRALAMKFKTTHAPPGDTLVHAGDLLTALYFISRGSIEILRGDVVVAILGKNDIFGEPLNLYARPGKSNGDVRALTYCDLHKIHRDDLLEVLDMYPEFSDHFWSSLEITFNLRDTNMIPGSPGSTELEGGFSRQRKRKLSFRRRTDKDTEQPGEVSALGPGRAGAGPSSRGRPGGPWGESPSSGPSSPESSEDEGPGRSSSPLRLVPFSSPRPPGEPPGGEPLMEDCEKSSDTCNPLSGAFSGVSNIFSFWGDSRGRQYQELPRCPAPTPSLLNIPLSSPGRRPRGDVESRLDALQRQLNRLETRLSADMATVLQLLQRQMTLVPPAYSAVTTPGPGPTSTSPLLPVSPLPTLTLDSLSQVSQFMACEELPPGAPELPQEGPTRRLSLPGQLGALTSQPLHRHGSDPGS
Outline: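 Thallium served as the potassium surrogate; its influx into dye-loaded U2OS cells carrying the channel was measured by fluorescence over 2 min.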
Note: nearly all actives have a fitted effect of over 50% in size.
Potency is the fitted concentration of half-maximal effect; tags give direction and shape of the fitted curve.

| Structure (SMILES) | Potency |
| --- | --- |
| CN(C)c1ccc(C(=C2C=CC(=[N+](C)C)C=C2)c2ccc(N(C)C)cc2)cc1 | active: 3.45 µM and active: 3.47 µM and active: 2.68 µM |
| COC(=O)C1=C(C)NC(COC(N)=O)=C(C(=O)OC(C)C)C1c1cccc(Cl)c1Cl (stereo not given) | inconclusive: 23.9 µM [inhibitor] |
| CC1(C)CCC(C)(C)c2cc(C(=O)Nc3ccc(C(=O)O)cc3)ccc21 | inconclusive: 43.6 µM [inhibitor, partial curve] |
| Cc1cccc(Nc2ccccc2)c1 | inconclusive: 49 µM [inhibitor, single point] |
| COC(=O)C1=C(C)NC(C)=C(C(=O)OCCCN2CCC(c3ccccc3)(c3ccccc3)CC2)C1c1cccc([N+](=O)[O-])c1 (stereo not given) | active: 1.51 µM |
| CCc1c(C(=O)NN2CCCCC2)nn(-c2ccc(Cl)cc2Cl)c1-c1ccc(Br)cc1 | inconclusive: 9.77 µM [inhibitor, full curve] |
| CCN(CC)CCNc1ccc(CO)c2sc3ccccc3c(=O)c12 | active: 10.7 µM |
| Nc1nc2ccccc2n1Cc1ccc(F)cc1 | inconclusive: 19 µM [inhibitor, partial curve] |
| OCCN1CCN(CCCN2c3ccccc3Sc3ccc(C(F)(F)F)cc32)CC1 | active: 3.38 µM |

target: Cytochrome P450 3A4 (Homo sapiens) (UniProt P08684); assay: Cytochrome P450 Family 3 Subfamily A Member 4 (CYP3A4) small molecule antagonists: luciferase reporter qHTS assay (AID 1671201); details: P450-Glo CYP3A4 enzyme, luciferin luminescence, 1 h; series mostly up to 115 µM; activity change, negative = inhibition: at the top concentration; for activity change, negative = inhibition: % is set by controls: 0 for no effect and ±100 for the full control effect
Chain of UniProt P08684 (P08684 whole entry, looked up): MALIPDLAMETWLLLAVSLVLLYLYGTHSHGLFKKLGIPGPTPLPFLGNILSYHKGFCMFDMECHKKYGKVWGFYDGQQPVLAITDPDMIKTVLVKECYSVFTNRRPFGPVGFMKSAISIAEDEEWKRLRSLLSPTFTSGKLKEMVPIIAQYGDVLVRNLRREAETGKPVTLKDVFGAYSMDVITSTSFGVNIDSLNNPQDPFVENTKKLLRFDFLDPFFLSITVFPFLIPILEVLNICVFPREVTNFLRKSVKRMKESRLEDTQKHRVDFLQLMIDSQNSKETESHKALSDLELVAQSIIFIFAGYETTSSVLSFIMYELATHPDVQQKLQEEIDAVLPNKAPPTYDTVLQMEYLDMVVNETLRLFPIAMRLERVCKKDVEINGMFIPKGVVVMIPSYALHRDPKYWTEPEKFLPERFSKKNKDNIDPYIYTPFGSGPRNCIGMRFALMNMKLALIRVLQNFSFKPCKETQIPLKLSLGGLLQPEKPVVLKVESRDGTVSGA
Outline: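 Relative luminescence units after 20 min with luciferin detection reagent served as read-out. Beforehand, CYP3A4 turned over a proluciferin substrate for 1 h at room temperature with NADPH regeneration, following 10 min compound preincubation.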

| Structure (SMILES) | activity change, negative = inhibition | Potency |
| --- | --- | --- |
| CN(C)c1ccc(N=Nc2ccccc2C(=O)O)cc1 | inactive: 11.6% | – |
| N=C1C=CC(=C(c2ccc(N)cc2)c2ccc(N)cc2)C=C1 | – | active: 12.6 µM |
| CN(C)CCOC(c1ccccc1)c1ccc(Br)cc1 (stereo not given) | inactive: -12.5% [at 52.9 µM] | – |
| Cc1ccc(O)c(O)c1 | – | inconclusive: 77.4 µM [inhibitor, partial curve, poor fit] |
| N#CSc1ccc(N)c([N+](=O)[O-])c1 | – | inconclusive: 71.4 µM [inhibitor, partial curve] |
| O=C(O)c1cc(N=Nc2ccc([N+](=O)[O-])cc2)ccc1O | – | inconclusive: 69.7 µM [inhibitor, partial curve, poor fit] |
